# The list shows a part of the results.
# Key:
# [1] = system: HSkMC (human skeletal muscle cells); test: cytotoxicity call (relative viability < 0.9); details: 10 µM
# [2] = system: HepG2; test: cytotoxicity call (relative viability < 0.9); details: 10 µM
# [3] = system: S. aureus RN4220; test: growth inhibition call (relative growth <= 0.2); details: 50 µM
SMILES,cytotoxicity call [1],cytotoxicity call [2],growth inhibition call [3]
C[C@@H]1CN([C@H](C)CO)C(=O)c2cc(NC(=O)CCC(F)(F)F)ccc2O[C@@H](C)CCCCO[C@H]1CN(C)C(=O)Nc1ccc(C(F)(F)F)cc1,inactive,inactive,inactive
C[C@H](O)[C@H](O)[C@@H](O)[C@@H](O)/C=N/NC(=O)c1ccc(C(=O)NO)cc1,inactive,inactive,inactive
Cc1ccc(S(=O)(=O)N(C)C[C@@H]2OCCCC[C@@H](C)Oc3ccc(NC(=O)Nc4c(C)noc4C)cc3C(=O)N([C@H](C)CO)C[C@H]2C)cc1,inactive,inactive,inactive
COc1ccc(NC(=O)N(C)C[C@H]2OCCCC[C@@H](C)Oc3ccc(NC(=O)NC4CCCCC4)cc3C(=O)N([C@H](C)CO)C[C@H]2C)cc1,inactive,inactive,inactive
C[C@@H]1CN([C@H](C)CO)C(=O)Cc2cc(NC(=O)Nc3ccc(F)cc3)ccc2O[C@@H]1CN(C)Cc1ccc(Cl)c(Cl)c1,active,active,inactive
C[C@@H]1CN([C@H](C)CO)C(=O)c2cccc(NS(C)(=O)=O)c2O[C@@H]1CN(C)Cc1ccc(C(=O)O)cc1,inactive,inactive,inactive
COc1ccc(NC(=O)N2C[C@H](O)COC[C@@H]3O[C@@H](CC(=O)NC4Cc5ccccc5C4)CC[C@H]32)cc1,inactive,inactive,inactive
C[C@H](CO)N1C[C@H](C)[C@@H](CN(C)Cc2ccc(Oc3ccccc3)cc2)Oc2ncc(-c3ccncc3)cc2C1=O,inactive,inactive,inactive
Cc1cc(C(=O)Nc2cccc3c2O[C@@H](CN(C)Cc2ccccc2)[C@H](C)CN([C@@H](C)CO)C3=O)n(C)n1,inactive,inactive,inactive
C[C@@H]1O[C@H](O[C@@H]2[C@H](O)C[C@@]3(C)[C@@H](CC[C@]4(C)[C@H]3CC=C3[C@H]5CC(C)(C)CC[C@@]5(C(=O)O[C@H]5O[C@@H](C)[C@@H](O)[C@H](O[C@H]6OC[C@@H](O)[C@@H](O)[C@@H]6O)[C@H]5O[C@@H]5O[C@H](C)[C@H](O)[C@H](O[C@@H]6OC[C@H](O)[C@H](O[C@@H]7O[C@H](C)[C@@H](O)[C@H](O)[C@@H]7O)[C@H]6O)[C@H]5O)[C@@H](O)C[C@@]34C)[C@]2(C)CO)[C@@H](O)[C@H](O[C@H]2OC[C@@H](O)[C@@H](O[C@H]3OC[C@@H](O[C@H]4OC[C@@](O)(CO)[C@@H]4O)[C@@H](O)[C@@H]3O)[C@@H]2O)[C@@H]1O,inactive,inactive,inactive
CCC(=O)c1c(O)cc(O)cc1O,inactive,inactive,inactive
C[C@@H]1CN([C@@H](C)CO)C(=O)Cc2cc(NC(=O)CCCCCC(=O)Nc3ccccc3N)ccc2O[C@@H]1CN(C)S(C)(=O)=O,inactive,inactive,inactive
O=C(CN1CCOCC1)NCC[C@H]1CC[C@@H](NC(=O)Cc2ccccn2)[C@@H](CO)O1,inactive,inactive,inactive
Cc1noc(C)c1NC(=O)N(C)C[C@H]1Oc2c(NS(=O)(=O)c3ccccc3)cccc2C(=O)N([C@H](C)CO)C[C@@H]1C,inactive,inactive,inactive
C[C@@H]1CCCCO[C@@H](CN(C)S(=O)(=O)c2cccs2)[C@H](C)CN([C@@H](C)CO)C(=O)c2cc(NC(=O)CCC(F)(F)F)ccc2O1,inactive,inactive,inactive
C[C@@H]1CN([C@H](C)CO)S(=O)(=O)c2ccc(C#CCN(C)C)cc2O[C@@H]1CN(C)Cc1ccncc1,inactive,inactive,inactive
C[C@H]1CN([C@@H](C)CO)C(=O)c2cc(C#CCN(C)C)cnc2O[C@H]1CN(C)S(=O)(=O)c1cn(C)cn1,inactive,inactive,inactive
CC(C)NC(=O)Nc1cccc2c1O[C@@H](CN(C)S(=O)(=O)c1ccc(F)cc1)[C@H](C)CN([C@H](C)CO)C2=O,inactive,inactive,inactive
C[C@H]1CN([C@@H](C)CO)C(=O)Cc2cc(NC(=O)CCN3CCOCC3)ccc2O[C@H]1CN(C)C(=O)Nc1ccccc1,inactive,inactive,inactive
C=C1[C@H]2C[C@@H]3C(=C4[C@H](CO[C@@H]4[C@H]4CCCN4S(=O)(=O)c4ccccc4[N+](=O)[O-])[C@H]4C(=O)N(C)C(=O)[C@H]43)C[C@@H]2C(=O)N1C,inactive,inactive,inactive
Cc1cc(=O)n2c3ccccc3n(C[C@@H](O)CN3CCN(CCO)CC3)c2c1C#N,inactive,inactive,inactive
COc1ccc(S(=O)(=O)N(C)C[C@@H]2OCCCC[C@@H](C)Oc3ccc(NC(=O)c4ccccc4)cc3C(=O)N([C@@H](C)CO)C[C@@H]2C)cc1,inactive,inactive,inactive
C[C@H](CO)N1C[C@H](C)[C@H](CN(C)S(=O)(=O)c2ccc(F)cc2)Oc2ccc(NC(=O)Nc3cccc4ccccc34)cc2CC1=O,inactive,active,inactive
C[C@@H]1CN([C@@H](C)CO)C(=O)CCCn2cc(nn2)CO[C@H]1CN(C)C(=O)CCCN(C)C,inactive,inactive,inactive
O=C(O)c1cccc(-c2ccccc2)c1,inactive,inactive,inactive
C[C@@H]1CCCCO[C@H](CN(C)Cc2ccc(C(=O)Nc3ccccc3N)cc2)[C@@H](C)CN([C@@H](C)CO)C(=O)c2cc(N(C)C)ccc2O1,inactive,inactive,inactive

SMILES,cytotoxicity call [1],cytotoxicity call [2],growth inhibition call [3]
C[C@@H]1CN([C@@H](C)CO)C(=O)c2cc(NC(=O)CCC(F)(F)F)ccc2O[C@@H](C)CCCCO[C@@H]1CN(C)C(=O)CCC(F)(F)F,inactive,inactive,inactive
COc1ccc(-c2cnc3c(c2)C(=O)N([C@@H](C)CO)C[C@@H](C)[C@H](CN(C)C(=O)C2CCOCC2)O3)cc1,inactive,inactive,inactive
Cc1ccc(-c2cnc3c(c2)C(=O)N([C@H](C)CO)C[C@H](C)[C@@H](CN(C)C(=O)Cc2ccncc2)O3)cc1,inactive,inactive,inactive
C[C@@H]1CN([C@H](C)CO)C(=O)c2cccc(NC(=O)c3cnccn3)c2O[C@@H]1CN(C)S(C)(=O)=O,inactive,inactive,inactive
O=C(C[C@@H]1CC=CC[C@H](NC(=O)OCC2c3ccccc3-c3ccccc32)C(=O)OC[C@@H](Cc2c[nH]c3ccccc23)NC1=O)N[C@@H](CO)Cc1ccccc1,inactive,inactive,inactive
CN(C)CCCNC(=O)C[C@H]1CC[C@@H]2[C@@H](COc3ccc(NC(=O)NC4CCCC4)cc3C(=O)N2C)O1,inactive,inactive,inactive
C[C@@H]1CCCCO[C@H](CN(C)C(=O)Nc2ccccc2)[C@@H](C)CN([C@H](C)CO)C(=O)c2cc(NC(=O)Nc3ccc(C(F)(F)F)cc3)ccc2O1,inactive,inactive,inactive
C[C@@H]1CN([C@H](C)CO)C(=O)c2cc(NC(=O)C3CCCCC3)ccc2O[C@H]1CN(C)C(=O)Nc1cccc2ccccc12,inactive,inactive,inactive
C[C@@H]1CN([C@H](C)CO)C(=O)c2cc(NS(=O)(=O)c3cccs3)ccc2O[C@H]1CN(C)Cc1ccc(Oc2ccccc2)cc1,inactive,inactive,inactive
C[C@H](CO)N1C[C@H](C)[C@@H](CN(C)S(=O)(=O)c2ccc(F)cc2)Oc2ccc(NC(=O)c3ccncc3)cc2C1=O,inactive,inactive,inactive
C[C@H](CO)N1C[C@H](C)[C@H](CN(C)C(=O)Cc2ccccn2)Oc2cc(C#C[C@@H](C)O)ccc2S1(=O)=O,inactive,inactive,inactive
C[C@H]1CN([C@@H](C)CO)C(=O)c2cc(NC(=O)Nc3ccc(C(F)(F)F)cc3)ccc2O[C@@H]1CN(C)CC1CCCCC1,inactive,inactive,inactive
Cc1noc(C)c1NC(=O)N[C@@H]1C=C[C@@H](CC(=O)NCCCN(C)C)O[C@H]1CO,inactive,inactive,inactive
COc1ccc2c3c(n(c2c1)C)[C@@H](CO)N(C[C@]13CN(C1)C(=O)c1ccccn1)S(=O)(=O)c1ccc(cc1)C,inactive,inactive,inactive
CCC(=O)N(C)C[C@H]1Oc2ncc(C#C[C@@H](C)O)cc2C(=O)N([C@@H](C)CO)C[C@H]1C,inactive,inactive,inactive
Cc1ccc(S(=O)(=O)N(C)C[C@@H]2OCCCC[C@H](C)Oc3ccc(NS(=O)(=O)c4ccc(Cl)cc4)cc3C(=O)N([C@@H](C)CO)C[C@H]2C)cc1,inactive,inactive,inactive
O=C(CN1CCOCC1)N[C@H]1CC[C@H](CCn2cc(C3CC3)nn2)O[C@@H]1CO,inactive,inactive,inactive
COc1ccc(CNC(=O)C[C@H]2C[C@H]3c4cc(NS(=O)(=O)c5ccc(F)cc5)ccc4O[C@H]3[C@@H](CO)O2)cc1,inactive,inactive,inactive
O=[N+]([O-])c1ccc2nc(CO)[nH]c2c1,inactive,inactive,inactive
C/C(Cc1ncn(-c2cc(C)on2)n1)=N\O,inactive,inactive,inactive
CC(=O)Nc1nnc(S(N)(=O)=O)s1,inactive,inactive,inactive
COCC#Cc1ccc2c(c1)O[C@@H](CN(C)S(=O)(=O)c1cccc(OC)c1)[C@@H](C)CN([C@@H](C)CO)S2(=O)=O,inactive,inactive,inactive
Cc1nn(C)c(COc2ccc(N3CCN(S(=O)(=O)N(C)C)CC3)cc2)c1-c1cccc2c(CCCOc3cccc4ccccc34)c(C(=O)O)n(CCN3CCNCC3)c12,inactive,inactive,inactive
Cc1noc(C)c1S(=O)(=O)Nc1ccc2c(c1)C(=O)N([C@@H](C)CO)C[C@H](C)[C@H](CN(C)Cc1ccc3c(c1)OCO3)O2,inactive,inactive,inactive
C=CC[C@H](CC(=O)NCCO)C(=O)N[C@H](COC(=O)[C@@H](CC=C)CC(=O)OC(C)(C)C)Cc1ccccc1,inactive,inactive,inactive
